# Experimental data as given in article PMC9911399, “Two distinct binding modes provide the RNA-binding protein RbFox with extraordinary sequence specificity”.
# Changes are numbered by the printed parent chain; changes in the protein carry UniProt numbers. Some of the results follow.
# T1: RBFOX1 RRM (Homo sapiens, UniProt Q9NWB1 109-208)
# T1 sequence: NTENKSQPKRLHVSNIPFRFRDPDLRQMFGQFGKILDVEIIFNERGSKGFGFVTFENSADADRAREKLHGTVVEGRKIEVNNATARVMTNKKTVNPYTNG
# B1: UCGUAGA (DNA:RNA)
# RNA: GGGAGACCGGAAUUCAGAUUGUCCUCGUAGAUUAAAUCCCGUCGUAGCCACCA
# DNA 1: CAATCTGAATTCCGGTCTCCC
# DNA 2: TGGTGGCTACGACGGGATT
# B2: CCCGCGC (DNA:RNA)
# RNA: B1 RNA with U25C, G27C, U28G, A29C, A31C
# DNA 1: CAATCTGAATTCCGGTCTCCC
# DNA 2: TGGTGGCTACGACGGGATT
# B3: AGCGGCC (DNA:RNA)
# RNA: GGGAGACCGGAAUUCAGAUUGUCCAGCGGCCUUAAAUCCCGUCGUAGCCACCA
# DNA 1: CAATCTGAATTCCGGTCTCCC
# DNA 2: TGGTGGCTACGACGGGATT
# B4: GACUCGG (DNA:RNA)
# RNA: B1 RNA with U25G, C26A, G27C, A29C, A31G
# DNA 1: CAATCTGAATTCCGGTCTCCC
# DNA 2: TGGTGGCTACGACGGGATT
# B5: GAACACC (DNA:RNA)
# RNA: B3 RNA with A25G, G26A, C27A, G28C, G29A
# DNA 1: CAATCTGAATTCCGGTCTCCC
# DNA 2: TGGTGGCTACGACGGGATT
# B6: CGCCUUG (DNA:RNA)
# RNA: B3 RNA with A25C, G28C, G29U, C30U, C31G
# DNA 1: CAATCTGAATTCCGGTCTCCC
# DNA 2: TGGTGGCTACGACGGGATT
# B7: ACACAUA (DNA:RNA)
# RNA: B1 RNA with U25A, G27A, U28C, G30U
# DNA 1: CAATCTGAATTCCGGTCTCCC
# DNA 2: TGGTGGCTACGACGGGATT
# B8: GUUAGUC (DNA:RNA)
# RNA: B3 RNA with A25G, G26U, C27U, G28A, C30U
# DNA 1: CAATCTGAATTCCGGTCTCCC
# DNA 2: TGGTGGCTACGACGGGATT
# B9: CAUCCGG (DNA:RNA)
# RNA: B1 RNA with U25C, C26A, G27U, U28C, A29C, A31G
# DNA 1: CAATCTGAATTCCGGTCTCCC
# DNA 2: TGGTGGCTACGACGGGATT
# B10: GAAAUAG (DNA:RNA)
# RNA: GGGAGACCGGAAUUCAGAUUGUCCGAAAUAGUUAAAUCCCGUCGUAGCCACCA
# DNA 1: CAATCTGAATTCCGGTCTCCC
# DNA 2: TGGTGGCTACGACGGGATT
# B11: GAGCGUC (DNA:RNA)
# RNA: B3 RNA with A25G, G26A, C27G, G28C, C30U
# DNA 1: CAATCTGAATTCCGGTCTCCC
# DNA 2: TGGTGGCTACGACGGGATT
# B12: CAUAUGC (DNA:RNA)
# RNA: B10 RNA with G25C, A27U, A30G, G31C
# DNA 1: CAATCTGAATTCCGGTCTCCC
# DNA 2: TGGTGGCTACGACGGGATT
# B13: AUUUUCG (DNA:RNA)
# RNA: B3 RNA with G26U, C27U, G28U, G29U, C31G
# DNA 1: CAATCTGAATTCCGGTCTCCC
# DNA 2: TGGTGGCTACGACGGGATT
# B14: UGGAUAC (DNA:RNA)
# RNA: B10 RNA with G25U, A26G, A27G, G31C
# DNA 1: CAATCTGAATTCCGGTCTCCC
# DNA 2: TGGTGGCTACGACGGGATT
# B15: UCGUCGA (DNA:RNA)
# RNA: B1 RNA with A29C
# DNA 1: CAATCTGAATTCCGGTCTCCC
# DNA 2: TGGTGGCTACGACGGGATT
# B16: ACCAGUC (DNA:RNA)
# RNA: B3 RNA with G26C, G28A, C30U
# DNA 1: CAATCTGAATTCCGGTCTCCC
# DNA 2: TGGTGGCTACGACGGGATT
# B17: AUUGCUA (DNA:RNA)
# RNA: B3 RNA with G26U, C27U, G29C, C30U, C31A
# DNA 1: CAATCTGAATTCCGGTCTCCC
# DNA 2: TGGTGGCTACGACGGGATT
# B18: UUUUUGC (DNA:RNA)
# RNA: B1 RNA with C26U, G27U, A29U, A31C
# DNA 1: CAATCTGAATTCCGGTCTCCC
# DNA 2: TGGTGGCTACGACGGGATT
# B19: AGCCCAA (DNA:RNA)
# RNA: B3 RNA with G28C, G29C, C30A, C31A
# DNA 1: CAATCTGAATTCCGGTCTCCC
# DNA 2: TGGTGGCTACGACGGGATT
# B20: UGGAUAU (DNA:RNA)
# RNA: B10 RNA with G25U, A26G, A27G, G31U
# DNA 1: CAATCTGAATTCCGGTCTCCC
# DNA 2: TGGTGGCTACGACGGGATT
# Target: T1, RBFOX1 RRM
# Assay: EMSA; HiTS-Eq, 1 nM pool, 10 min; buffer printed only for the single-RNA assays: 10 mM Tris pH 7.5, 150 mM NaCl, 3.4 mM EDTA, 0.001% NP-40, 30 C
# Details: tags: His6 N-terminal (pET28a); label: 5' 32P
# Outline: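 Purified RbFox RRM, wild type or mutant, was incubated for 10 min in 50 µL with 1 nM of a 5′-radiolabelled RNA pool carrying 7 randomized nucleotides, whose flanks were annealed to DNA oligonucleotides, over a series of increasing protein concentrations. Unbound RNA was resolved on 8% native PAGE, cut out, reverse-transcribed, barcoded by PCR and sequenced on an Illumina HiSeq 2500. Relative association constants were derived from changes in read counts for each RNA species versus the control reaction and normalised to the cognate motif.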
row,Binder,binding signal
1,B1,0.0142 KA relative to UGCAUGU
2,B2,0.0137 KA relative to UGCAUGU
3,B3,0.0153 KA relative to UGCAUGU
4,B4,0.0114 KA relative to UGCAUGU
5,B5,0.00172 KA relative to UGCAUGU
6,B6,0.0242 KA relative to UGCAUGU
7,B7,0.00211 KA relative to UGCAUGU
8,B8,0.0119 KA relative to UGCAUGU
9,B9,0.000667 KA relative to UGCAUGU
10,B10,0.00818 KA relative to UGCAUGU
11,B11,0.0142 KA relative to UGCAUGU
12,B12,0.0071 KA relative to UGCAUGU
13,B13,0.016 KA relative to UGCAUGU
14,B14,0.0222 KA relative to UGCAUGU
15,B15,0.014 KA relative to UGCAUGU
16,B16,0.00462 KA relative to UGCAUGU
17,B17,0.01 KA relative to UGCAUGU
18,B18,0.0305 KA relative to UGCAUGU
19,B19,0.00242 KA relative to UGCAUGU
20,B20,0.0194 KA relative to UGCAUGU
